{"source": "PubChem BioAssay AID1030", "about": "(National Center for Advancing Translational Sciences (NCATS), 2008)", "note": "About 16,000 (7.3%) of roughly 220,000 compounds were called active. The shares of active, inactive and inconclusive entries below differ from those in the screen. Calls come from the whole dose curve; as a rule, active = well fitted inhibition curve with a large enough effect (not every such curve was filed as active); inconclusive = small, poorly fitted or top-dose-only effect, or another doubt; inactive = no such curve, though single readings can be large or run the other way. Potencies of inconclusive entries are left out as doubtful fits. Potency is the fitted concentration of half-maximal effect; tags give direction and shape of the fitted curve.", "data": [{"target": "Aldehyde dehydrogenase 1A1 (Homo sapiens) (UniProt P00352)", "sequence (P00352 whole entry, looked up)": "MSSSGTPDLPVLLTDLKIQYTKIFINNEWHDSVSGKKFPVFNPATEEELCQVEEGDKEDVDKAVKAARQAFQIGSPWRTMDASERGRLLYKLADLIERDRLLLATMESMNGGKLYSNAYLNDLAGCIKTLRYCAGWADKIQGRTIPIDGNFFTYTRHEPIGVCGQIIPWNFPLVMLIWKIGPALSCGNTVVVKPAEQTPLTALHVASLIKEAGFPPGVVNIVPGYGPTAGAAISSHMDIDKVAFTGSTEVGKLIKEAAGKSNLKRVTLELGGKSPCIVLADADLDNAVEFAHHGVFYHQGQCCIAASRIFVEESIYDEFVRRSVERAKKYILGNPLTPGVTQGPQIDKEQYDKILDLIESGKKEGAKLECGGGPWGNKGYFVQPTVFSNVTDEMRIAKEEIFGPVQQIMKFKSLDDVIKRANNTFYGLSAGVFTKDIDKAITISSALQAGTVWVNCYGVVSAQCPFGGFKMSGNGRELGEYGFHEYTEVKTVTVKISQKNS", "assay": "qHTS Assay for Inhibitors of Aldehyde Dehydrogenase 1 (ALDH1A1);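 for activity, negative = inhibition: plate controls were no enzyme wells and a reference inhibitor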", "conditions": "Purified ALDH1A1, NADH fluorescence, propionaldehyde substrate; series mostly up to 75.3 µM; activity, negative = inhibition: at the top concentration", "values": [{"smiles": "CC(=O)c1cc2c(cc1N(C(=O)Cn1nnc3ccccc31)C(C(=O)NCCC(C)C)c1cccnc1)OCO2", "note": "(centres undefined)", "activity, negative = inhibition": "inactive: -1.91%"}, {"smiles": "CC1(C)CC(=O)C=C(N2CCNCC2)C1", "Potency": "inconclusive [inhibitor, single point]"}, {"smiles": "O=C(Cn1c2[n+](c3ccc(C(F)(F)F)cc31)CCCCC2)Nc1ccc(Br)cc1", "activity, negative = inhibition": "inactive: 1.62%"}, {"smiles": "COC(=O)c1ccccc1NC(=O)c1noc2c1CCC2", "Potency": "inconclusive [inhibitor, partial curve]"}, {"smiles": "O=C1C=C[C@@H](O)[C@H]2[C@@H]3C(=O)N(C[C@@H]4CCCO4)C(=O)[C@@H]3CC[C@H]12", "Potency": "inconclusive [inhibitor, partial curve]"}, {"smiles": "CCn1ncc(/C=C/C(=O)Nc2c(C)nn(Cc3ccc(Cl)cc3Cl)c2C)c1C", "Potency": "inconclusive [inhibitor, single point]"}, {"smiles": "Cc1noc(C)c1C(=O)N1CCC2(CCN(Cc3cc(C(F)(F)F)cc(C(F)(F)F)c3)CC2)CC1", "activity, negative = inhibition": "inactive: 6.33%"}, {"smiles": "COc1ccc(-c2ccc3c(n2)CCCN3C[C@H](O)CN2CCCc3nc(C)c(C)cc32)cc1", "Potency": "inconclusive [inhibitor, single point]"}, {"smiles": "COc1cc(OC)c(-c2nc3c[n+](CC(=O)c4ccccc4)ccc3n2C)cc1OC", "Potency": "inconclusive [inhibitor, single point]"}, {"smiles": "N#C[C@H](c1ccccc1)N1CCCN([C@@H](C#N)c2ccccc2)C1c1ccccc1O", "note": "(some centres undefined)", "activity, negative = inhibition": "inactive: 1.56% [at 13.5 µM]"}, {"smiles": "CCOC(=O)N1CCN(C(=O)CS(=O)Cc2nc(-c3cccc(C)c3)oc2C)CC1", "note": "(centres undefined)", "Potency": "inconclusive [inhibitor, partial curve]"}, {"smiles": "O=C(N/N=C/c1coc2ccccc2c1=O)c1cc2ccccc2o1", "Potency": "active: 10 µM"}, {"smiles": "CC(C)=CC(=O)Nc1ccc(OCc2ccccc2)cc1", "activity, negative = inhibition": "inactive: -2.52%"}, {"smiles": "CCOc1ccc(NS(=O)(=O)CC23CCC(CC2=O)C3(C)C)cc1", "note": "(centres undefined)", "activity, negative = inhibition": "inactive: 4.91%"}, {"smiles": "COc1ccc(N(CC(=O)N2CCCCC2)S(=O)(=O)c2c(C)nn(C)c2C)cc1", "Potency": "inconclusive [inhibitor, single point]"}, {"smiles": "CCOc1ccc(-c2nc(C#N)c(N3CCN(C)CC3)o2)cc1", "Potency": "inconclusive [inhibitor, partial curve]"}, {"smiles": "CC1CC(C)CN(CCCOc2ccccc2[N+](=O)[O-])C1", "note": "(centres undefined)", "Potency": "inconclusive [inhibitor, single point]"}, {"smiles": "CCCc1cc(=O)oc2cc(C)cc(OCc3nn[nH]n3)c12", "Potency": "inconclusive [inhibitor, partial curve]"}, {"smiles": "COc1ccc(S(=O)(=O)Nc2nccs2)cc1OC", "Potency": "inconclusive [inhibitor, single point]"}, {"smiles": "Cc1nn(C(C)(C)C)c(C)c1/C=N/OC(=O)Nc1ccc(Cl)c(Cl)c1", "activity, negative = inhibition": "inactive: 2.52%"}, {"smiles": "O=C1NCC(c2ccccc2)C1C(=O)N/N=C\\c1ccc(-c2cccc(Cl)c2Cl)o1", "note": "(centres undefined)", "activity, negative = inhibition": "inactive: -5.55%"}, {"smiles": "Cc1cc(=O)oc2c(CN3CCN(C)CC3)c(O)c(Cl)cc12", "Potency": "inconclusive [inhibitor, partial curve]"}, {"smiles": "CC(C)CC(=O)n1sc(NC(=O)c2ccccc2)nc1=O", "Potency": "inconclusive [inhibitor, single point]"}, {"smiles": "CCn1c2ccccc2c2cc(NC(=O)c3ccccc3[N+](=O)[O-])ccc21", "activity, negative = inhibition": "inactive: 4.09%"}, {"smiles": "Cc1cc(C)nc(N/C(=N/S(=O)(=O)Cc2ccccc2)Nc2ccccc2)n1", "Potency": "active: 12.6 µM"}, {"smiles": "Cn1c2ccccc2c2ncn(Cc3ccco3)c(=O)c21", "Potency": "inconclusive [inhibitor, partial curve]"}, {"smiles": "N#Cc1cccc(-c2cc(NCc3ccccc3)ncn2)c1", "Potency": "inconclusive [inhibitor, single point]"}, {"smiles": "Cc1cc(C(=O)Nc2ccc(S(=O)(=O)N3CCCC3)cc2)cs1", "Potency": "inconclusive [inhibitor, single point]"}, {"smiles": "NNC(=O)CS(=O)(=O)CS(=O)(=O)CC(=O)NN", "Potency": "inconclusive [inhibitor, single point]"}, {"smiles": "O=[N+]([O-])c1cc(/C=N/n2cnnc2)ccc1N1CCCC1", "Potency": "active: 1 µM"}, {"smiles": "CC1=C(C(=O)c2ccccc2)C(c2cccc([N+](=O)[O-])c2)NC(=S)N1", "note": "(centres undefined)", "Potency": "active: 1.12 µM"}, {"smiles": "CCOc1c2ccc(C(=O)NCc3ccco3)cc2nn1CCOC", "Potency": "inconclusive [inhibitor, partial curve]"}, {"smiles": "Cc1ccc(S(=O)(=O)N(c2ccccc2)C2CCS(=O)(=O)C2)cc1", "note": "(centres undefined)", "activity, negative = inhibition": "inactive: -2.74%"}, {"smiles": "COc1cc2c(cc1OC)C1=NC(=O)CN1C(SCc1ccccc1)=N2", "Potency": "inconclusive [inhibitor, partial curve]"}, {"smiles": "Cc1cccc(N2C(=O)C(Cl)=C(N3CCOCC3)C2=O)c1", "Potency": "inconclusive [inhibitor, partial curve]"}, {"smiles": "Cc1ccc(CC(=O)NCCS(=O)c2ccc(Cl)cc2)cc1", "note": "(centres undefined)", "Potency": "inconclusive [inhibitor, partial curve]"}, {"smiles": "C=CCn1c(SCC(=O)Nc2sccc2C(N)=O)nc2ccc(Cl)cc2c1=O", "Potency": "inconclusive [inhibitor, partial curve]"}, {"smiles": "C=CCc1cccc(C2C(C)CCC3C(=O)N4C(Cc5c([nH]c6ccccc56)C4c4cc(OC)c(OC)c(OC)c4)C(=O)N32)c1", "note": "(centres undefined)", "activity, negative = inhibition": "inactive: 9.17% [at 13.5 µM]"}, {"smiles": "O=C(Nc1ccc(-c2nc3ccccc3o2)cc1)c1cccnc1", "Potency": "inconclusive [inhibitor, partial curve]"}, {"smiles": "COc1ccc(-n2c(Cc3cccn3C)nnc2SCC(=O)Nc2cccc(NC(C)=O)c2)cc1", "Potency": "inconclusive [inhibitor, single point]"}, {"smiles": "O=C(NCc1ccccc1)NC(=O)c1ccncc1", "activity, negative = inhibition": "inactive: 6.54%"}, {"smiles": "CN(C)CCCN(C(=O)CCOc1ccccc1)c1nc2ccc(F)cc2s1", "Potency": "inconclusive [inhibitor, partial curve]"}, {"smiles": "COc1ccccc1C1C2=C(N=C3SCC(=O)N31)c1ccccc1CC2", "note": "(centres undefined)", "activity, negative = inhibition": "inactive: -9.11%"}, {"smiles": "COC(=O)c1ccc(-c2nc(O)c(C)s2)cc1", "Potency": "active: 20 µM"}, {"smiles": "CN(Cc1ccno1)Cc1cn(Cc2ccccc2)nc1-c1ccc2c(c1)OCO2", "Potency": "inconclusive [inhibitor, single point]"}, {"smiles": "CCSc1nn2c(=O)c3ccccc3nc2s1", "Potency": "inconclusive [inhibitor, single point]"}, {"smiles": "Cc1ccc(O)c(N=Cc2sc3ccccc3c2Cl)c1", "Potency": "inconclusive [inhibitor, single point]"}, {"smiles": "O=C(CN1CCOCC1)NCc1ccccc1", "activity, negative = inhibition": "inactive: -6.2%"}, {"smiles": "Cc1ccc2cc(C)c(N3CCN(c4ccccn4)CC3)nc2c1", "Potency": "inconclusive [inhibitor, single point]"}, {"smiles": "Cc1ccc(-c2cc(C(=O)N3CCOCC3)c3ccccc3n2)cc1", "Potency": "inconclusive [inhibitor, single point]"}, {"smiles": "COc1cccc2c(=O)cc(C)n(CC(=O)Nc3ccc(C)c(C)c3)c12", "activity, negative = inhibition": "inactive: -4.48%"}, {"smiles": "Cc1ccc(NC(=O)C(=O)NNC(=O)c2cccs2)cc1", "activity, negative = inhibition": "inactive: 9.8%"}, {"smiles": "COC(=O)c1c(NC(=O)CSc2nc(-c3ccco3)cc(C(F)(F)F)n2)sc2c1CCCC2", "Potency": "inconclusive [inhibitor, single point]"}, {"smiles": "COc1ccc(C2c3c(ccc4ccccc34)Oc3ncn4nc(-c5ccco5)nc4c32)cc1OC", "note": "(centres undefined)", "activity, negative = inhibition": "inactive: 9.35%"}, {"smiles": "COc1ccc(-c2csc3nc(C)nc(N4CCN(c5ccc(C(C)=O)cc5)CC4)c23)cc1OC", "activity, negative = inhibition": "inactive: -3.45%"}, {"smiles": "O=C(NCCN1CCOCC1)c1ccc(CS(=O)(=O)c2c(Cl)cccc2Cl)o1", "Potency": "inconclusive [inhibitor, single point]"}, {"smiles": "Cc1c(Cl)cccc1NC(=O)CNc1cccc(S(=O)(=O)N(C)C)c1", "activity, negative = inhibition": "inactive: -36.5%"}, {"smiles": "Cc1ccc(-c2nc3ccccc3[nH]2)s1", "Potency": "inconclusive [inhibitor, partial curve]"}, {"smiles": "COc1ccc(CC(=O)N2CCN=C2SC)cc1OC", "activity, negative = inhibition": "inactive: 7.18%"}, {"smiles": "CN1CCN(c2ccc(Cl)cc2NC(=O)/C=C/c2ccc(F)cc2)CC1", "activity, negative = inhibition": "inactive: 8.3%"}, {"smiles": "CC(=O)c1ccc2noc(-c3cccc(C)c3)c2c1", "Potency": "inconclusive [inhibitor, single point]"}, {"smiles": "Cc1noc(C)c1-c1ccc2ncnc(NC3CCNCC3)c2c1", "Potency": "inconclusive [inhibitor, single point]"}, {"smiles": "N#CCO/N=C(\\c1ccccc1)c1ccncc1", "Potency": "inconclusive [inhibitor, partial curve]"}, {"smiles": "CCN(CC)CCCNc1nc2ccccc2[nH]1", "activity, negative = inhibition": "inactive: 6.25%"}, {"smiles": "Cc1ccc(O)c(C(=O)c2cnn(-c3ccc(S(=O)(=O)N4CCOCC4)cc3[N+](=O)[O-])c2)c1", "Potency": "inconclusive [inhibitor, full curve]"}, {"smiles": "COc1ccc(C)cc1N(CC(=O)NC1CCCC1)C(=O)CCC(=O)Nc1cc(C)on1", "activity, negative = inhibition": "inactive: 16.5%"}, {"smiles": "Cc1ccc(C(=O)OCC(=O)Nc2ccccc2)cc1NC(=O)c1ccco1", "activity, negative = inhibition": "inactive: -3.54%"}, {"smiles": "CC1(C)CC(=O)C(C=Nc2ccc(NC3=C(C#N)C(=O)CC(C)(C)C3)cc2)=C(O)C1", "Potency": "active: 7.08 µM"}, {"smiles": "CC(O)CNc1nc2c(c(=O)n(C)c(=O)n2C)n1C/C=C/c1ccccc1", "note": "(centres undefined)", "activity, negative = inhibition": "inactive: 6.13%"}, {"smiles": "COCCNC(=O)c1cc2ncc(Br)cn2n1", "activity, negative = inhibition": "inactive: 3.49%"}, {"smiles": "COC(=O)c1ccc(C(=O)OC)c(NC(=O)COC(=O)C2CCCCC2)c1", "Potency": "inconclusive [inhibitor, partial curve]"}, {"smiles": "Cc1cc(C)nc(N(C#N)CC(=O)Nc2ccccc2)n1", "Potency": "active: 15.8 µM"}, {"smiles": "N#CC1=C(N)C(C#N)(C#N)C(c2cccnc2)C2CCCC=C12", "note": "(centres undefined)", "Potency": "inconclusive [inhibitor, partial curve]"}, {"smiles": "Cc1ncoc1C(=O)N1CCCC(C(=O)c2ccc(C(F)(F)F)cc2)C1", "note": "(centres undefined)", "Potency": "active: 15.8 µM"}]}]}
